According to paper PMC4336329 (PLoS ONE, 2015):
Among all 310,000 compounds or so, about 2,200 (0.71%) showed an effect of 50% or more. Effects have a minus sign here. Some of the results follow.

What follows are compounds tested against human ether-à-go-go-related gene (hERG) potassium channel (human, UniProt Q12809) (assay: primary screen, population patch clamp on CHO cells stably expressing hERG).
Sequence of human ether-à-go-go-related gene (hERG) potassium channel (Q12809 whole entry, looked up): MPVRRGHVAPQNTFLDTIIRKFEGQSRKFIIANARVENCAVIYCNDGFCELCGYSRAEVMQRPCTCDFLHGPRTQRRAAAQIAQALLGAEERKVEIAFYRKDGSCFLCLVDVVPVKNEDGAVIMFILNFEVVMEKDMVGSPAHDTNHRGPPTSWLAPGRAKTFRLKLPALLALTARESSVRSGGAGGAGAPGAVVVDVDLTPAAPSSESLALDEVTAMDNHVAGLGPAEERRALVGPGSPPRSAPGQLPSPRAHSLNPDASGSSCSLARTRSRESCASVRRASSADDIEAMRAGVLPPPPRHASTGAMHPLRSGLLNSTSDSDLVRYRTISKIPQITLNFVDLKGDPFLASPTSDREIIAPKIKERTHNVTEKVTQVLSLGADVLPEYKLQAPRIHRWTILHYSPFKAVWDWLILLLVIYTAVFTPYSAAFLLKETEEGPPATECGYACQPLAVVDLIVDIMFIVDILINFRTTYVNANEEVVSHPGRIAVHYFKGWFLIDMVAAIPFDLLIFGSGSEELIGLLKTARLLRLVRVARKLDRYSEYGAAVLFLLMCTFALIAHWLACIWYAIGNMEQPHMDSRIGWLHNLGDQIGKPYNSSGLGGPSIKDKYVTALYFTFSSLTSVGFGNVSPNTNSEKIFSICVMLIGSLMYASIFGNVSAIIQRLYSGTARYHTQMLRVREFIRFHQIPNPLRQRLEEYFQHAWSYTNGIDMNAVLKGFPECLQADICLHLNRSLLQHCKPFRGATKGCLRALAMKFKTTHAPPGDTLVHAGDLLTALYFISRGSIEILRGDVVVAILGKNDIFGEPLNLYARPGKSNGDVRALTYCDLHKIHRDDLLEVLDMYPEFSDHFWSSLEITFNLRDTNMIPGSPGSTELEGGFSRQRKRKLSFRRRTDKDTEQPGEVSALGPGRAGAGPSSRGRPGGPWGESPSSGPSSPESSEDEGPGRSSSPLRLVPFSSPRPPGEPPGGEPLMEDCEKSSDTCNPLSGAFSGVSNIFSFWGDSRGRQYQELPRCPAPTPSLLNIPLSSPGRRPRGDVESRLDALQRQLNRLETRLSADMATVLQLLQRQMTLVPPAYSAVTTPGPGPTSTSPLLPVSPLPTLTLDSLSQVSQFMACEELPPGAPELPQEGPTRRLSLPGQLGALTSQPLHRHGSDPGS
With `COc1ccc(OCCc2nnc(N)s2)cc1` the “hERG current change (%, negative = inhibition) at 1uM” value was 0.609%. `CC(=O)c1cc2ccccc2oc1=O` was tested, and the “hERG current change (%, negative = inhibition) at 1uM” value was -2.36%. With `O=C(CCCNC(=O)c1ccc(Cl)cc1)Nc1ncccc1O` the “hERG current change (%, negative = inhibition) at 1uM” value was 14.1%. `CC(=O)c1ccc(N2CCN(C(=O)c3cc4c(C)nc5ccccc5c4o3)CC2)cc1` was tested, and the “hERG current change (%, negative = inhibition) at 1uM” value was 3.6%. `CN(c1ccc(C(=O)Nc2cccnc2)cc1)S(=O)(=O)c1ccc(Cl)cc1` was tested, and the “hERG current change (%, negative = inhibition) at 1uM” value was 15.7%. With `Cc1n[nH]c(=S)n1/N=C/c1ccc(OCc2ccc(Cl)cc2)cc1` the “hERG current change (%, negative = inhibition) at 1uM” value was 1.61%. For `CCN(C(=O)c1coc(=O)c2ccccc12)c1cc(OC)ccc1OC`, the “hERG current change (%, negative = inhibition) at 1uM” value was 7.68%. For `COc1ccccc1N1CCN(/N=C(\C)c2ccccc2O)CC1`, the “hERG current change (%, negative = inhibition) at 1uM” value was 6.43%. `COc1ccccc1Nc1nc(-c2ccc3c(c2)NC(=O)CO3)cs1` was tested, and the “hERG current change (%, negative = inhibition) at 1uM” value was 16%. `CCOC(=O)c1cccc(NC(=O)N2CCOCC2)c1` was tested, and the “hERG current change (%, negative = inhibition) at 1uM” value was 8.16%. In the case of `CCOC(=O)c1csc(NC(=O)c2cccs2)n1`, the “hERG current change (%, negative = inhibition) at 1uM” value is reported as 10.9%. `O=C(NCCCO)C(=O)NCC1OCCCN1S(=O)(=O)c1cccs1` (centres unmarked) was tested, and the “hERG current change (%, negative = inhibition) at 1uM” value was 0.615%. `O=C(O)C1C2C=CC(C2)C1C(=O)NCc1ccoc1` (centres unmarked) was tested, and the “hERG current change (%, negative = inhibition) at 1uM” value was 14.3%. `COc1ccc(S(=O)(=O)N/N=C(/C)c2ccco2)cc1` was tested, and the “hERG current change (%, negative = inhibition) at 1uM” value was 4.78%. For `CC(C)[C@H](NC(=O)NC1CCCc2ccccc21)C(=O)O` (some centres unmarked), the “hERG current change (%, negative = inhibition) at 1uM” value was -6.68%. With `C/C(N)=C(/C#N)C(=O)COC(=O)C1CSC2(c3ccc(F)cc3)CCC(=O)N12` (centres unmarked) the “hERG current change (%, negative = inhibition) at 1uM” value was 16.6%. For `CC(C)(C)NC(=O)C1Cc2ccccc2CN1C(=O)Nc1ccccc1Cl` (centres unmarked), the “hERG current change (%, negative = inhibition) at 1uM” value was 7%. In the case of `O=C1CCCN2N=C(SCC(=O)Nc3ccc(Cl)cc3)SC2=N1`, the “hERG current change (%, negative = inhibition) at 1uM” value is reported as 5.53%. For `O=C(CN1CCc2ccccc21)NCc1ccccc1Cl`, the “hERG current change (%, negative = inhibition) at 1uM” value was 10.1%. In the case of `O=C(NCCCn1ccnc1)C(=O)NCC(c1cccnc1)N1CCN(c2ccccc2)CC1` (centres unmarked), the “hERG current change (%, negative = inhibition) at 1uM” value is reported as 7.3%. For `CN(C)c1cc[n+](CC(=O)c2ccc(OC(F)F)cc2)cc1.[Br-]`, the “hERG current change (%, negative = inhibition) at 1uM” value was 4.22%. `CCOC(=O)C1=C(CC)Nc2ccccc2N/C1=N\S(=O)(=O)c1ccc2ccccc2c1` was tested, and the “hERG current change (%, negative = inhibition) at 1uM” value was 7.83%. For `CC(=O)Oc1ccc(C(=O)Nc2ccc3c(c2)OCCO3)cc1`, the “hERG current change (%, negative = inhibition) at 1uM” value was 19.4%. With `O=C1C(=O)N(CCCN2CCOCC2)C(c2ccc([N+](=O)[O-])cc2)/C1=C(/O)c1ccc2c(c1)OCO2` (centres unmarked) the “hERG current change (%, negative = inhibition) at 1uM” value was 14.2%. For `COc1ccc(C=O)cc1COc1ccc([N+](=O)[O-])c(C)c1`, the “hERG current change (%, negative = inhibition) at 1uM” value was 21%. `C/C(=N/n1cnnc1)c1cccnc1` was tested, and the “hERG current change (%, negative = inhibition) at 1uM” value was 5.85%. `O=C(Nc1cccnc1)Nc1ccc(F)c(Cl)c1` was tested, and the “hERG current change (%, negative = inhibition) at 1uM” value was -11.8%. For `O=C(Nc1ccccc1C(=O)N1CCCCC1)c1ccccc1C(F)(F)F`, the “hERG current change (%, negative = inhibition) at 1uM” value was 13.5%. In the case of `Cc1onc(-c2ccccc2)c1C(=O)NC(=S)NNC(=O)c1ccc(O)cc1O`, the “hERG current change (%, negative = inhibition) at 1uM” value is reported as 11.9%. With `COc1ccc2c(c1)c1nc3ccccc3nc1n2CC(=O)OC(C)C` the “hERG current change (%, negative = inhibition) at 1uM” value was 15.3%. For `Cc1ccc(Oc2ccc3c(c2)C(=O)N(c2ccc(S(=O)(=O)Nc4nccs4)cc2)C3=O)cc1`, the “hERG current change (%, negative = inhibition) at 1uM” value was 8.57%. For `O=C(CSc1nc2ccccc2n1S(=O)(=O)c1ccccc1)N1CCCCC1`, the “hERG current change (%, negative = inhibition) at 1uM” value was 7.93%. For `Cc1ccc(-c2cc3nn(-c4ccccc4)c(N)c3c(=O)o2)cc1`, the “hERG current change (%, negative = inhibition) at 1uM” value was 5.78%. `C#CCOCCOCCOCCNc1nc(N2CCN(C(=O)Cn3cc(CCCC[NH3+])nn3)CC2)nc(N2CCN(C(=O)Cn3cc(CCC[NH+]=C(N)N)nn3)CC2)n1.[Cl-]` was tested, and the “hERG current change (%, negative = inhibition) at 1uM” value was 9.79%. In the case of `CCOC(=O)c1ccccc1NC(=O)CN(c1ccccc1)S(=O)(=O)N(C)C`, the “hERG current change (%, negative = inhibition) at 1uM” value is reported as 11.7%. `CCN(CC)S(=O)(=O)c1cccc(-c2n[nH]c(=S)n2/N=C/c2ccc(C(=O)OC)cc2)c1` was tested, and the “hERG current change (%, negative = inhibition) at 1uM” value was 4.5%. In the case of `Cc1ccc(/C=C2/SC(=S)N(CC(=O)Nc3ncc(Cc4ccc(C)cc4)s3)C2=O)cc1`, the “hERG current change (%, negative = inhibition) at 1uM” value is reported as 10%. For `CCCC(c1nnnn1CS(=O)(=O)c1ccc(C)cc1)N1CCN(C2CCCC2)CC1.Cl` (centres unmarked), the “hERG current change (%, negative = inhibition) at 1uM” value was -0.34%. In the case of `CCOc1ccc(-n2c(=O)c3c4c(sc3n(CC(=O)NCCCOC)c2=O)CCCCC4)cc1`, the “hERG current change (%, negative = inhibition) at 1uM” value is reported as 4.58%. For `COc1ccc(Br)cc1C(=O)NC(=S)Nc1ccc2[nH]c(=O)[nH]c2c1`, the “hERG current change (%, negative = inhibition) at 1uM” value was 14.9%. For `CS(=O)(=O)N1CCC(C(=O)NCCc2ccccc2)CC1`, the “hERG current change (%, negative = inhibition) at 1uM” value was -0.504%. `CCOC(=O)c1ccc(Oc2cc(C)nc(Cl)n2)cc1` was tested, and the “hERG current change (%, negative = inhibition) at 1uM” value was 6.94%. With `CN(C)C(=O)C1Cc2ccccc2CN1S(=O)(=O)c1cccs1` (centres unmarked) the “hERG current change (%, negative = inhibition) at 1uM” value was 4.38%. In the case of `c1ccc2sc(C3CCNCC3)nc2c1`, the “hERG current change (%, negative = inhibition) at 1uM” value is reported as 8.12%. With `O=P(Cc1nnco1)(c1ccccc1)c1ccccc1` the “hERG current change (%, negative = inhibition) at 1uM” value was 15.7%. In the case of `COc1cc(C2C3C(=O)N(c4ccccc4)C(=O)C3ON2c2ccccc2)ccc1O` (centres unmarked), the “hERG current change (%, negative = inhibition) at 1uM” value is reported as 14.7%. For `CN1CCCCc2c1nc1ccccc1c2N.O=C(O)c1cncc(Br)c1`, the “hERG current change (%, negative = inhibition) at 1uM” value was -79.7%. `O=C(O)CCC(=O)N1CCN(c2nc(-c3ccccc3Cl)c3cc(Br)ccc3n2)CC1` was tested, and the “hERG current change (%, negative = inhibition) at 1uM” value was 3.67%. With `CCS(=O)(=O)NCC(c1cccnc1)N1CCN(c2ccc(OC)cc2)CC1` (centres unmarked) the “hERG current change (%, negative = inhibition) at 1uM” value was -3.31%. For `O=C(COC(=O)c1nc(Cl)ccc1Cl)NCc1cccs1`, the “hERG current change (%, negative = inhibition) at 1uM” value was 1.48%. `COc1ccc(C(c2nnnn2C2CCCC2)N2CCN(C3CCCC3)CC2)cc1OC.Cl` (centres unmarked) was tested, and the “hERG current change (%, negative = inhibition) at 1uM” value was 7.47%. With `C=CCNC1=C(Cl)C(=O)c2ccccc2C1=O` the “hERG current change (%, negative = inhibition) at 1uM” value was 8.37%. For `Cc1ccc(C(=O)NC(=S)NCC2CCCO2)cc1` (centres unmarked), the “hERG current change (%, negative = inhibition) at 1uM” value was 6.53%. `CC(=O)c1cccc(NC(=O)C2CC(=O)N(Cc3ccccc3)C2)c1` (centres unmarked) was tested, and the “hERG current change (%, negative = inhibition) at 1uM” value was 12.2%. For `O=C(CSc1nc2ccccc2o1)N/N=C/c1ccc(O)c(O)c1`, the “hERG current change (%, negative = inhibition) at 1uM” value was 3.6%. For `Cc1ccc(NC(=O)CSCc2ccco2)cc1`, the “hERG current change (%, negative = inhibition) at 1uM” value was 14.6%.
